Test results from PMC3618186.
No constants are given. Whether binding was seen depends on the method and setting.

The chains behind the UniProt entries cited, without tags or fusion partners. Residues count along the entry.
UniProt P28023, residues 381-530: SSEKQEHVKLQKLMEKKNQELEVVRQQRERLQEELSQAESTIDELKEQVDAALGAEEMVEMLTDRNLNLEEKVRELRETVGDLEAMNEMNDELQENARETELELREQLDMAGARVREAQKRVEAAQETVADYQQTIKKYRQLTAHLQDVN

Target: dynactin p150^Glued coiled-coil 1B (CC1B), residues 381–530 (R. norvegicus) (UniProt P28023)
Assay: native gel or EMSA; native PAGE; purified proteins incubated at 25°C for five minutes in equimolar or two fold molar excess; 12% gels with a stacking gel at pH 7.4 or 8–25% gradient gels; both purified

Binder	binding
Pac11 1–86 L4A,K5A,Q6A (domain or fragment, UniProt P40960 1-86) MERAAALEEKRRQLKELRERRKQASLFPGSETMGHHPTEVHAKATMVSVSVQTDMEEGSKIQEPQSAYLRRKEVITYDKGIQTDQI	no binding
Pac11 1–86 L17A,R18A (domain or fragment, UniProt P40960 1-86) MERLKQLEEKRRQLKEAAERRKQASLFPGSETMGHHPTEVHAKATMVSVSVQTDMEEGSKIQEPQSAYLRRKEVITYDKGIQTDQI	no binding
Pac11 1–86 E19A,R20A,R21A (domain or fragment, UniProt P40960 1-86) MERLKQLEEKRRQLKELRAAAKQASLFPGSETMGHHPTEVHAKATMVSVSVQTDMEEGSKIQEPQSAYLRRKEVITYDKGIQTDQI	no binding
Pac11 1–86 E9A,K10A,R11A (domain or fragment, UniProt P40960 1-86) MERLKQLEAAARQLKELRERRKQASLFPGSETMGHHPTEVHAKATMVSVSVQTDMEEGSKIQEPQSAYLRRKEVITYDKGIQTDQI	no binding

The remaining lines, values ahead:

binding	Binder
no binding	Pac11 1–86 Q6A,L7A,E8A (domain or fragment, UniProt P40960 1-86) MERLKAAAEKRRQLKELRERRKQASLFPGSETMGHHPTEVHAKATMVSVSVQTDMEEGSKIQEPQSAYLRRKEVITYDKGIQTDQI
no binding	Pac11 1–86 R12A,Q13A,L14A (domain or fragment, UniProt P40960 1-86) MERLKQLEEKRAAAKELRERRKQASLFPGSETMGHHPTEVHAKATMVSVSVQTDMEEGSKIQEPQSAYLRRKEVITYDKGIQTDQI
